Results: PubChem BioAssay AID463173 (ICCB-Longwood Screening Facility, Harvard Medical School, 2010)
The campaign covered roughly 52,000 compounds. About 1,700 (3.3%) were called active. No stated cut-off is given here; in the data, active means survival mostly below about 52% (no sharp cut-off); inactive means mostly above about 56%. This is one part of the list.

What follows are molecules tested on Wild type (assay: S. aureus survival, RN4220 and DeltatarO strains – OD600, teichoic acid synthesis inhibitors, primary screen (AID 463173)). Conditions: S. aureus RN4220 wild type/DeltatarO growth, OD600, 18 h, hits give low values, screened at 18.75 µg/mL (by protocol).
With `CCN(c1ccc(OC)cc1)S(=O)(=O)c1nnc(NC(=O)COc2ccc(F)cc2)s1` the survival was inactive: 71%. In the case of `Cc1ccccc1NC(=O)N1CCCC(c2nc(-c3ccc(F)cc3)no2)C1` (stereo unspecified), the survival was inactive: 111%. For `Cc1cccc(NC(=O)Cn2c(=O)sc3ccccc32)c1`, the survival was inactive: 119%. In the case of `Cc1cccc(-c2nc(SCC(=O)NCC3CCCO3)c3c(=O)n(C)c(=O)n(C)c3n2)c1` (stereo unspecified), the survival was inactive: 128%. In the case of `Cc1ccccc1N(C)C(=O)c1noc2c1COc1ccccc1-2`, the survival was inactive: 90%. With `C=CCNC(=O)CSc1nc2cc(C)cc(C)c2cc1C#N` the survival was inactive: 100%. For `C=Cn1cc[n+](CC(=O)c2ccc(OC)cc2)c1`, the survival was inactive: 119%. In the case of `CCOC(=O)c1ccc(NC(=O)Nc2ccc3snnc3c2)cc1`, the survival was inactive: 146%. For `CCOc1ccc(-c2noc(CSc3nnc(-c4ccccc4)n3-c3ccccc3)n2)cc1`, the survival was inactive: 75%. For `O=C(CCn1c(=O)c2cccn2c2cccnc21)NCc1ccccc1Br`, the survival was inactive: 93%. With `CN1C(=O)c2ccccc2Sc2ccc(NC(=O)Cc3c(F)cccc3Cl)cc21` the survival was inactive: 72%. For `CCC(CC)C(=O)Nc1ccc(C(=O)OCc2cc(=O)n3nc(C4CC4)sc3n2)cc1`, the survival was inactive: 87%. With `CCC(=O)Nc1ccc(C)cc1-c1nc2ccccc2n(C(C)C(=O)Nc2ccccc2CC)c1=O` (stereo unspecified) the survival was inactive: 121%. With `COc1cccc(CNC(=O)CN2N=C(c3ccc(C)cc3)CCC2=O)c1` the survival was inactive: 82%. With `Cc1ccc(-n2nc(C(=O)N3CCN(c4ccccc4F)CC3)c3c4ccccc4n(C)c3c2=O)cc1` the survival was inactive: 79%. With `CCN(CC)CCCNC(=O)CCCn1c(=O)[nH]c2ccc(Br)cc2c1=O` the survival was inactive: 63%. In the case of `CC(=O)c1ccccc1NS(=O)(=O)c1cc2c(cc1C)NC(=O)CO2`, the survival was inactive: 79%. With `Cc1ccc(N(C)S(=O)(=O)c2ccc3c(c2)C(C)(C)C(=O)N3C)cc1C` the survival was inactive: 87%. In the case of `O=C(NCc1ccccc1Cl)c1cccn1-c1nnc(N2CCCCC2)s1`, the survival was inactive: 75%. In the case of `CCC(C(=O)N1CCN(c2cc(Cl)ccc2C)CC1)n1nc(C)c2sc3ccccc3c2c1=O` (stereo unspecified), the survival was inactive: 76%. For `Cc1ccc(Cl)cc1N1CCN(C(=O)c2cccn2-c2nnc(N3CCCCC3)s2)CC1`, the survival was inactive: 73%. `Fc1cccc(Cl)c1CNc1n[nH]c(-c2ccco2)n1` was tested, and the survival was inactive: 83%. In the case of `CC(C)CCNC(=O)c1ccc(Cn2c(SCC(=O)NC(C)C)nc3ccccc3c2=O)cc1`, the survival was inactive: 148%. `COc1cc(Cl)ccc1OC(=O)c1cn(-c2ccccc2OC)c(=O)c2ccccc12` was tested, and the survival was inactive: 73%. With `Cc1csc(NC(=O)/C=C\C(=O)O)n1` the survival was inactive: 99%. In the case of `CC1C(=O)Nc2ccc(S(=O)(=O)Nc3ccccc3Br)cc2NC1=O` (stereo unspecified), the survival was inactive: 89%. In the case of `O=C(Nc1ccccc1)c1ccco1`, the survival was inactive: 109%. With `Cc1ccc2nc(Cl)c3cc(C(=O)NCCCN4CCC(C)CC4)sc3c2c1` the survival was inactive: 98%. For `Cc1cc(NC(=O)c2ccc(-c3ccc(Br)cc3)o2)cc(-c2nc3ncccc3o2)c1O`, the survival was inactive: 78%. With `COc1ccc2c(c1)c1c(c(=O)n(-c3ccccc3)c(=O)n1CC(=O)Nc1ccc(F)cc1)n2C` the survival was inactive: 69%. With `CCc1ccc(-n2c(SCC(=O)NC(C)CC)nc3n[nH]c(C)c3c2=N)cc1` (stereo unspecified) the survival was inactive: 124%. `COc1ccc(N2CC(NC(=O)c3ccc4c(c3)OCO4)CC2=O)cc1OC` (stereo unspecified) was tested, and the survival was inactive: 74%. In the case of `COc1ccc(NC(=O)Cc2csc(COc3cccc(C)c3)n2)cc1OC`, the survival was inactive: 84%. `Cc1ccc(C)c(S(=O)(=O)c2nnn3c2nc(NCc2cccs2)c2sccc23)c1` was tested, and the survival was inactive: 58%. With `CCc1cc2c(cc3c(=O)n(CC(=O)N4CCCCC4)nc(CC)n32)s1` the survival was inactive: 71%. In the case of `CCCCN(C)CC(O)Cn1cc(/C=C/C(=O)c2ccc(OC)c(OC)c2)c2ccccc21` (stereo unspecified), the survival was inactive: 87%. For `CCCn1ccc2c(OCC(=O)NCc3ccc(F)cc3)cccc2c1=O`, the survival was inactive: 47%. In the case of `Cc1ccc(-c2nc(S(=O)(=O)c3ccc(Cl)cc3)c(N3CCCCC3)o2)cc1`, the survival was active: 5%. For `COc1ccc(CNC(=O)Cn2nnc(-c3ccccc3F)n2)cc1`, the survival was inactive: 87%. In the case of `COc1ccc(Cl)cc1C(=O)Nc1ccc2oc(-c3ccc(C(C)(C)C)cc3)nc2c1`, the survival was inactive: 74%. In the case of `CCn1c(=O)c2c(n3c(=S)[nH]nc13)-c1ccccc1CC21CCCCC1`, the survival was inactive: 109%. `CCCSC1=NC2(CCN(C(=O)NC3CCCCC3)CC2)N=C1c1ccccc1` was tested, and the survival was inactive: 94%. With `NC(=S)NN1N=C(c2ccccc2)CC1=O` the survival was inactive: 109%. In the case of `CCCSc1ncc(Cl)c(C(=O)Nc2sc3c(c2C(=O)NCC)CCCC3)n1`, the survival was inactive: 85%. For `CC(C)c1nnc(NC(=O)c2nc(SCc3ccc(F)cc3)ncc2Cl)s1`, the survival was inactive: 58%. `Cc1ccc2[nH]c(=O)c(CN(Cc3cccnc3)S(=O)(=O)c3ccccc3)cc2c1` was tested, and the survival was inactive: 102%.
